According to the supplement of paper PMC10126150:
Values marked as one replicate rest on one cluster of the flow cell; about a third of the high ones do not repeat.

The sequences below were run on ATP (assay: switch fluorescence ratio, 500 uM ATP over buffer (Cy3 cluster intensity, sum of 5 cycles each) (fold (ratio)); higher = stronger signal-on switching upon ATP binding; sequences stand for … in TCGTCGGCAGCGTCAGATGTGTATAAGAGACAGTTTTTTTTTTTTTTTTTTTTTTTTT…TC). Settings: aptamer strand: ATP DNA aptamer (quencher-CACCTGGGGGAGTATTGCGGAGGAAGG + anchor), 100 nM annealed; ATP concentration: 500 uM; one replicate.
Procedure, shortened: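 Switching-strand clusters labelled with Cy3 on a modified Illumina MiSeq flow-cell were annealed to 100 nM quencher-labelled ATP aptamer, imaged in selection buffer, and re-imaged after 15 min with 500 uM ATP at 22 °C. This was done over five cycles with NaOH stripping and re-annealing in between. The fluorescence ratio is summed target-cycle over summed buffer-cycle Cy3 intensity per cluster, averaged per switch-domain sequence, excluding clusters outside 100-1000 RFU.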
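Also: ATP exposure 15 min at 22 °C before imaging.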

Sequence	switch fluorescence ratio
GTACAGCTAT	1.05
ACAGGCTGAT	1.06
GGTGATATTG	1.04
TTACAAAGCT	1.15
GAGTTTGATG	1.01
CCATTTCGAG	1
CGTAGTGTGG	0.973
TTCCTCCTAT	1.18
GGAAAAGTCT	0.992
TGAAGTTTAT	0.98
GTTAACGGCC	1.01
GCCGCGGACA	0.953
CGTTAGATTT	1.01
GATCGATGTA	0.941
TTTTTCAAGC	0.993
AGACTTCCCG	1.04
TGCTGAGGGA	0.974
GTTCGCGACC	1
TGGCACCTAT	1.07
GCCTAGCCGT	1.01
TATCATTGAT	1.03
GGACGCGCAG	0.95

Sequence	switch fluorescence ratio
GAGTTGCCA	1.03
CGTTCAAAAA	0.918
TATGGCCAAC	0.964
CATAGAACTT	0.97
TACATGGATC	0.963
ACGGATTTAA	1.01
ATTATGATTA	1
AAATACCTAA	1.05
CCACTAGCTC	1.4
TTGCGGCTA	1.04
AAGTGTTGGT	0.925
AGTAGATTCT	0.964
CTAGTTAGT	1.01
ACGGTGCCGA	1.04
ATTGATGAAA	1.04
GCGGGCGCCG	0.988
CTGAACATCC	1.11
GACGCAAAGG	2.33
CGGCTTACGG	1
CCCGGTTGCA	1.1
CGGCGAGACT	1.35
TACTCATATG	1.02

Sequence	switch fluorescence ratio
CTATGGCCAC	1.01
ATTGGTAATG	0.987
CCACGGGTCC	1.08
TTTATAGCAA	1.79
TGTAGCGGC	1.47
CCGGCCGGTG	1.08
TATCACAGCA	1.07
TAGATGTAAT	0.943
GTTTTCCTCG	2.12
GCGGGGAGCC	1
AGCAGTGTGA	1.05
CAAACGCGCT	1.16
TGTCGAATGC	0.951
ATCGTATCGT	0.921
TACTCTGTCT	1.01
CTCATCCCTT	1.05
TCTAGAAGGT	1.01
AAAGGTGGCT	1.06
CCGATTAATT	1.14
TTCGTAATTA	1.04
TGGAAATATC	1.02
GACTCGACGA	1.1

Sequence	switch fluorescence ratio
CCCCTGCTCC	2.03
GAGTTGCAAG	0.951
TAACCAGTCG	1.02
GTTAGAGCCA	1.02
CTGGTGATAC	3.55
ACCAGCAACC	2.08
GGAATTACAT	1.03
ACTGGGACTA	1.15
TCGGTCGCTG	1
TCAACATGAA	0.993
TTTATTTATC	1.01
AGGGCCCAAG	0.963
TTATGGCACT	1.03
CTGGAGTCCC	1.02
CTATGTCCTA	0.985
CACAAGTCCG	1.09
GATTGGCGGT	1.02
GGTCCGCGCT	1.14
TTTCTCCGAC	4.82
